Test results: the RNAGym collection of RNA variant scans (doi:10.1093/nar/gkz1192)
The source gives no read counts; variants with many changes may rest on few reads.

B1: CPEB3 Ribozyme (parent)
chain: UAACAGGGGGCCACAGCAGAAGCGUUCACGUCGCAGCCCCUGUCAGAUUCUGGUGAAUCUGCGAAUUCUGCUGUAUAUCUC

Variants of: B1
Experiment: self-cleavage, relative activity (ratio to wild type); higher = more cleavage; in vitro, sequencing
Method in brief: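 After error-prone PCR and barcoding, CPEB3 ribozyme mutant libraries were transcribed with T7 RNA polymerase at 37°C for 5 hours, then given 15 min with DNase I before an EDTA stop, and they cleaved during both steps. Reverse transcription with template switching preceded Illumina sequencing. Relative activity divides a variant's cleaved/total read fraction by the unmutated ribozyme's. At least 5 reads were required per variant, and three batches were averaged.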

| Variant | self-cleavage |
| --- | --- |
| UAACAGGGGGCCACAGCAGUAGCGUUCACGUCGCAGCCCCUGCCAGGUUCUGGCGAAUCUGUGGAUUCUGCUGUAUAUCUC [A20U U43C A47G U54C C62U A64G] | 0.11 |
| UAACAGGGGGCCACAGCAGUAGCGUUCACGUCGCAGCCCCUGCCAGAUUCUGGUGGGUCUGCGAAUUCUGCUGUAUAUCUC [A20U U43C A56G A57G] | 0.09 |
| UAACAGGGGGCCACAGCAGUAGCGUUCACGUCGCAGCCCCUGCCAGAUUCUGGUGAAUCUGUGGAUUCUGCUGUAUAUCUC [A20U U43C C62U A64G] | 0.18 |
| UAACAGGGGGCCACAGCAGUAGCGUUCACGUCGCAGCCCCUGCCAGAUUCUGGUGAAUCUGCGAAUUCUGCCGUAUAUCUC [A20U U43C U72C] | 0.18 |
| UAACAGGGGGCCACAGCAGUAGCGUUCACGUCGCAGCCCCUGGCGGAUUCUGGUGAAUCUGCGAAUCCUGCUGUAUAUCUC [A20U U43G A45G U67C] | 0.05 |
| UAACAGGGGGCCACAGCAGUAGCGUUCACGUCGCAGCCCCUGUCAGAUACUGGCGAAUCUGCGAACUCUGCUGUAUAUCUC [A20U U49A U54C U66C] | 0.13 |
| UAACAGGGGGCCACAGCAGUAGCGUUCACGUCGCAGCCCCUGUCAGAUCCUGGUGAAUCAGCGAAUUCUGCAGUAUAUCUC [A20U U49C U60A U72A] | 0.1 |
| UAACAGGGGGCCACAGCAGUAGCGUUCACGUCGCAGCCCCUGUCAGAUUCAGGUGAAUCUGCGAAUUCCGCUGUAUAUCUC [A20U U51A U69C] | 0.13 |
| UAACAGGGGGCCACAGCAGUAGCGUUCACGUCGCAGCCCCUGUCAGAUUCCGGUGAAUCCGCGAAUUCUCCAGUAUAUCUC [A20U U51C U60C G70C U72A] | 0.17 |
| UAACAGGGGGCCACAGCAGUAGCGUUCACGUCGCAGCCCCUGUCAGAUUCUGGAGAAUAUGCGAAUUCUGCUGUAUAUCUC [A20U U54A C59A] | 0.18 |
| UAACAGGGGGCCACAGCAGUAGCGUUCACGUCGCAGCCCCUGUCAGAUUCUGGAGAAUCUGCGAAUUCUGCUGUACAUCUC [A20U U54A U76C] | 0.25 |
| UAACAGGGGGCCACAGCAGUAGCGUUCACGUCGCAGCCCCUGUCAGAUUCUGGUGAAACUGCGAAUUCUGCUGUAUAUCCC [A20U U58A U80C] | 0.17 |
| UAACAGGGGGCCACAGCAGUAGCGUUCACGUCGCAGCCCCUGUCAGAUUCUGGUGAACCCGUGAAUUCUGCUGUUUAUCUC [A20U U58C U60C C62U A75U] | 0.09 |
| UAACAGGGGGCCACAGCAGUAGCGUUCACGUCGCAGCCCCUGUCAGAUUCUGGUGAAUCAGCGGAUUCUGCUGUAUACCUC [A20U U60A A64G U78C] | 0.1 |
| UAACAGGGGGCCACAGCAGUAGCGUUCACGUCGCAGCCCCUGUCAGAUUCUGGUGAAUCUGCGAAAUCUGCUGUAUGUCUC [A20U U66A A77G] | 0.25 |
| UAACAGGGGGCCACAGCAGUAGCGUUCACGUCGCAGCCCCUGUCAGAUUCUGGUGAAUCUGCGAACUCAGCUGUAUAUCUC [A20U U66C U69A] | 0.17 |
| UAACAGGGGGCCACAGCAGUAGCGUUCACGUCGCAGCCCCUGUCAGAUUCUGGUGAAUCUGCGAAUUCUGCUGUAUACCAC [A20U U78C U80A] | 0.26 |

| Variant | self-cleavage |
| --- | --- |
| UAACAGGGGGCCACAGCAGUAGCGUUCACGUCGCAGCCCCUGUCAGAUUCUGGUGAAUCUGCGAAUUCUGCUGUAUAUCCA [A20U U80C C81A] | 0.58 |
| UAACAGGGGGCCACAGCAGACGCGUUCACGUCGCGGCCCAUGUCAGAUUCUGGUGAAUCUGCGAAUUCUGCUGUAUAUCUC [A21C A35G C40A] | 0.21 |
| UAACAGGGGGCCACAGCAGACGCGUUCACGUCGCAGCCCCUGUCGGAUCCUGGUGAAUCUGCGAAUUCUGCUGUAUAUCUC [A21C A45G U49C] | 0.11 |
| UAACAGGGGGCCACAGCAGACGCGUUCACGUCGCAGCCCCUGUCUGAUUCUGGUGAGUCUGCGAAUUCUGCUGUAUAUCUC [A21C A45U A57G] | 0.14 |
| UAACAGGGGGCCACAGCAGACGCGUUCACGUCGCAGCCCCUGUCAGAUUCUGGUGGAUCUGCGAAUUCAGCUGUAUAUCCC [A21C A56G U69A U80C] | 0.11 |
| UAACAGGGGGCCACAGCAGACGUGUUCACGUCGCAGCCCCUGUCAGAUUCUGGUGAAUUUGCGCGUUCUGCUGUAUAUCUC [A21C C23U C59U A64C A65G] | 0.05 |
| UAACAGGGGGCCACAGCAGACGCGUUCACGUCGCAGCUCCUGUCAGAUUCGGGUGAAUCUGCGAAUUCUGCUGUAUAUCUC [A21C C38U U51G] | 0.07 |
| UAACAGGGGGCCACAGCAGACGCGUUCACGUCCCAGCCCCUGUCAGAUUCUGGUGAAACUGCGAAUUCUGCUGCAUACCUC [A21C G33C U58A U74C U78C] | 0.04 |
| UAACAGGGGGCCACAGCAGACGCGCUCACGUCGCAGCCCCAGUCAGAUUCUGGUGAAUCUGCGAAUUCUGCUGUAUACCCC [A21C U25C U41A U78C U80C] | 0.25 |
| UAACAGGGGGCCACAGCAGACGCGUACACGUCGCAUCCCCCGUCAGAUUCUGGUGAAUCUGCGAAUUCUGCUGUAUAUCUC [A21C U26A G36U U41C] | 0.12 |
| UAACAGGGGGCCACAGCAGACGCGUACACGUCGCAGCCCCUGUCAGAUUCUGGUGAAUCUGCGAAUACUGCUGUAUAUCUC [A21C U26A U67A] | 0.09 |
| UAACAGGGGGCCACAGCAGACGCGUGCACGACGCAGACCCUGUCAGGUUCUGGUGAAUCUGCAAAUUCUGCUGUUUAUCUC [A21C U26G U31A C37A A47G G63A A75U] | 0.04 |
| UAACAGGGGGCCACAGCAGACGCGUUCACGACGCAGCCCCUGUCAGAUUCUGGUGAGUCUGCGAAUUCUGAUGUAUAUCUC [A21C U31A A57G C71A] | 0.12 |
| UAACAGGGGGCCACAGCAGACGCGUUCACGUCGCAGCCCCCGUCAGAUACUGGUGAAUCUGCGGAUUCUGCUGUAUCUCUC [A21C U41C U49A A64G A77C] | 0.14 |
| UAACAGGGGGCCACAGCAGACGCGUUCACGUCGCAGCCCCUGUCAGAUUCCGGUGAACCUGCGAAUUCUGCUGUAUAUCUC [A21C U51C U58C] | 0.05 |
| UAACAGGGGGCCACAGCAGACGCGUUCACGUCGCAGCCCCUGUCAGAUUCUGGUGAAUCUGCGAAUUCUGCUGGUUAUCUC [A21C U74G A75U] | 0.23 |
| UAACAGGGGGCCACAGCAGAGGCGUUCCCGUGGCAGCCCCUGUCCGAUUCUGGUGAAUCUGCGAAUUCUGCUGUAUAUCUC [A21G A28C C32G A45C] | 0.2 |
